Assays:
older, healthy subjects = assay: Crossover study Part 1: safety and tolerability (TEAEs); assay type: in vivo, human; conditions: for serious adverse events: LYT-100 850 mg BID / pirfenidone 801 mg TID; for incidence of gastrointestinal AEs / incidence of nervous system AEs: LYT-100 850 mg BID / pirfenidone 801 mg TID (FIG. 6B)
[1] = test system: patients with Idiopathic Pulmonary Fibrosis (IPF); assay: IPF trial Part A (26-week double-blind): efficacy, FVC and FVCpp, time to progression; assay type: in vivo, human
Description: The primary objective was to determine the dose(s) to carry into Phase 3. […] Patients were randomized to one of the four treatments in a 1:1:1:1 ratio and stratified based on prior exposure to nintedanib (<6 months) versus nintedanib-naïve patients. Patients who completed the Double-blind Treatment Period (Part A) were offered participation in the Long-term Extension (Part B). […] For patients who participated in Part B, the follow-up was conducted at the end of Part B. A graphical illustration of an embodiment of the trial design is provided as FIG. 24B.
Doses were adjusted according to safety and tolerability to avoid toxicity.
Note that, for all treatment groups, the first 7 days of treatment, one capsule was taken TID., Day 8 through Day 14, two capsules TID., and Day 15 forward, 3 capsules TID.
Weekly home FVC was assessed with an individual spirometer, which was supplied to each patient. The site used its own equipment for in-clinic FVC assessments. Spirometry measurements were performed according to the American Thoracic Society/European Respiratory Society (“An Official American Thoracic Society and European Respiratory Society Technical Statement Technical Statement” Am J Respir Crit Care Med. 2019; 200(8):e71-e83) and the study specific Pulmonary Function Manual, at timepoints specified in the Schedule of Assessments. Spirometry was conducted while the patient was in a seated position. The test was done in order to achieve three acceptable FVC measurements (three curves to be provided), and the best result selected according to the guidelines. The best of three efforts was defined as the highest FVC, obtained on any of the three blows meeting the ATS/ERS/JRS/ALAT 2019 criteria (Graham et al, 2019) with preferably a maximum of eight attempts.
Pulmonary function was measured in a standardized manner and results transmitted electronically during the visit immediately after performing the spirometry and evaluated by a central reader. In case the acceptability and repeatability criteria as specified by ATS/ERS/JRS/ALAT guidelines were not met, a repeat spirometry was performed during the same visit.
The primary efficacy endpoint was the rate of decline in FVC mL over 26 weeks. In addition, decline in FVC % predicted from baseline to Week 26 and by >10% and >5% was assessed.
The secondary endpoint was comparison of FVC % predicted change from baseline to Week 26.
The following parameters were measured or calculated as part of the spirometry assessment: • FVC (mL) and FVC % predicted (FVCpp) • FEV1 (mL) and percent predicted forced expiratory volume in 1 second (FEV1% p) • FEV1/FVC ratio • Forced expiratory flow between 25% and 75% of exhaled volume (FEF25-75) The ‘2012 Global Lung Function Initiative Equations’ was used to calculate the predicted values (Quanjer et al, “Multi-ethnic reference values for spirometry for the 3-95 year age range: the global lung function 2012 equations: Report of the Global Lung Function Initiative (GLI), ERS Task Force to establish improved Lung Function Reference Values.,” Eur Respir J, vol. 40(6), pp. 1324-1343, 2012). […]

[2] = Crossover study Part 1: PK of LYT-100 850 mg BID vs pirfenidone 801 mg TID; assay type: in vivo, human; conditions: fed
Source text: Over encapsulation was utilized to match TID dosing for pirfenidone and to match the number of LYT-100 capsules administered for each dose. Thus, during LYT-100 treatment, the mid-day dose was placebo.
Approximately forty older healthy female and male adult subjects (1:1 target ratio) were randomized into 1 of 2 cohorts:Cohort 1 or Cohort 2, N=20 subjects per cohort; minimum of 8 per sex per cohort. Subjects in each cohort were randomized to treatment sequence as follows: Sequence A: Pirfenidone to LYT-100; Sequence B: LYT-100 to pirfenidone. Dosing is outlined in Table 1. A graphical illustration of the study design for Part 1 is provided as FIG. 2.
(§1) The study is blinded with a placebo mid-day dose for LYT-100 to match TID pirfenidone dosing. There was a single AM fasting dose on Day 4 for both drugs. There was a 6-day wash-out period between drug cross-over.
Blood samples for PK were collected for Cohorts 1 and 2 at specified times during both periods, as follows: • Days 1 & 11:0 (pre-morning dose) • Days 2 & 12: no sampling. • Days 3 & 13:0 (pre-morning dose), and 1, 2, 3, 4, 6 (pre-mid-day dose), 7, 8, 9, 10, 12 (pre-evening dose), 13, 14, 15, 16, and 17 hours post-morning dose • Days 4 & 14:0 (pre-morning dose), and 1, 2, 3, 4, 6 (post-dose), […]
Urine samples for analysis of excretion in urine were collected, separated by specified time interval, and analyzed. […]

[3] = PK modelling / bioequivalence simulation of LYT-100 doses vs pirfenidone 801 mg TID (pooled data); parameters: species or system human
Description: PK modeling data incorporated the results of various MAD PK studies to reduce variability inherent in multiple studies of small sample size.
as §1
Using the foregoing crossover data, a further simulation was performed. […] These ratios were then assessed using the same process described in Chow (Design and Analysis of Bioavailability and Bioequivalence Studies; Chapman & Hall/CRC Biostatistics Series, Chapman; Hall/CRC 2008) and the CDER (Guidance for Industry Statistical Approaches to Establishing Bioequivalence Center for Drug Evaluation and Research [CDER], FDA, 2001).
Bioequivalence simulations were performed for AUC24ss across this dosing study and three prior dosing studies. […] The results of the simulations across this study and three prior studies is provided in tabular form in FIG. 18.

[4] = 26 weeks, pirfenidone 801 mg TID
[5] = LYT-100 825 mg BID (1650 mg daily), extrapolated (FIG. 5)

Compound: Cc1ccc(=O)n(-c2ccccc2)c1 [Pirfenidone, pirfenidone, reference compound]
- serious adverse events (older, healthy subjects): no serious adverse events
- incidence of gastrointestinal AEs (older, healthy subjects): 29.7%
- incidence of nervous system AEs (older, healthy subjects): 35.1%
- FVC, Bayesian Posterior Mean Difference vs. Placebo [1, 4]: 60.4 mL
- FVC, Frequentist Adjusted Mean Difference vs. Placebo [1, 4]: 60.9 mL
- FVCpp, Bayesian Posterior Mean comparison vs. Placebo [1, 4]: 1.81
- FVCpp, Frequentist Adjusted Mean comparison vs. Placebo [1, 4]: 1.97
- Treatment effect, FVC, versus placebo [1, 4]: 54.1%
- Treatment effect, FVCpp, versus placebo [1, 4]: 57.4%
- Treatment effect, FVC, versus placebo ([1]; 26 weeks, pirfenidone 801 mg TID, listed as pirfenidone): 54.1%
- Cohen's D, FVC ([1]; pirfenidone 801 mg TID): 0.27
- Cohen's D, FVCpp ([1]; pirfenidone 801 mg TID): 0.29
- Change from Baseline in FVC over 26 Weeks, Bayesian Posterior Mean (SE) ([1]; pirfenidone 801 mg TID, N=61): −50.4 (28.33) mL
- Change from Baseline in FVC over 26 Weeks, Frequentist Adjusted Mean (SE) ([1]; pirfenidone 801 mg TID, N=61): −51.6 (29.13) mL
- Change from Baseline in FVCpp over 26 Weeks, Bayesian Posterior Mean (SE) ([1]; pirfenidone 801 mg TID, N=61): −1.45 (0.89)
- Change from Baseline in FVCpp over 26 Weeks, Frequentist Adjusted Mean (SE) ([1]; pirfenidone 801 mg TID, N=61): −1.46 (0.881)
- Change from Baseline in FVC over 26 Weeks, Frequentist Adjusted Mean (SE) ([1]; pirfenidone 801 mg TID, N=61, listed as pirfenidone): -51.6 mL

Compound: [2H]C([2H])([2H])c1ccc(=O)n(-c2ccccc2)c1 [LYT-100, 5-(methyl-d3)-1-phenylpyridin-2-(1H)-one]
- steady-state AUC as % of pirfenidone 801 mg TID [2]: 102%
- steady-state Cmax as % of pirfenidone 801 mg TID [2]: 104%
- serious adverse events (older, healthy subjects): no serious adverse events
- incidence of gastrointestinal AEs (older, healthy subjects): 37.1%
- incidence of nervous system AEs (older, healthy subjects): 45.7%
- effect size greater than pirfenidone 801 mg TID (FVC and FVCpp) ([1]; LYT-100 825 mg TID): approximately 50%
- steady-state Cmax as % of pirfenidone 801 mg TID ([3]; LYT-100 550 mg TID, extrapolated/predicted (FIG. 4, FIG. 5)): 67.4%
- steady-state Cmax as % of pirfenidone 801 mg TID [3, 5]: 101.1%
- steady-state exposure (AUC) as % of pirfenidone 801 mg TID [3, 5]: 98.5%
- predicted Cmax, % higher than Cmax of pirfenidone 801 mg TID ([3]; LYT-100 825 mg TID): 15%
- steady-state systemic exposure as % of pirfenidone 801 mg TID ([3]; LYT-100 850 mg BID, from earlier PK crossover study): about 102%

From US12622899B2 (PureTech LYT 100, Inc., priority 2018, dated 2026)
